# Laboratory results published in the RNAGym collection of RNA variant scans (doi:10.7554/elife.90254).
# The source gives no read counts; variants with many changes may rest on few reads.
# B1: LINE1-mini (parent)
# chain: GGCAGAGCUCAACACAGCGUGGCAAAGUGGCUGUGGCUAGACUGCC
# Variants of: B1
# Test: self-cleavage, relative activity (ratio to wild type); higher = more cleavage; in vitro, sequencing; the parent is a self-cleaving ribozyme
row,Variant,self-cleavage
1,GGCAGGGCACAACACUGCGUGGCAAAGUGGCUGUGGCUAGACUGCC [A6G U9A A16U],0.01
2,GGCAGUGCUCGACACAGCGUGGCAAAGUGGUUGUGGCUAGACUGCC [A6U A11G C31U],0.02
3,GGCAGGGCUCAACACAGCGUGGCAAAGUGGCCGUGGCUAUACUGCC [A6G U32C G40U],0.02
4,GGCAGGGCUCAACACAGCGCGGCAAAGUGGCUGUGGCUAGACUGGC [A6G U20C C45G],0.03
5,GGCAGGGCUCAACACAGCGAGGCAAAGUGGCUUUGGCUAGACUGCC [A6G U20A G33U],0.03
6,GGCAGGGCACAACACAGCGUGGCAAAGUGGCUGUGGCUAGACUUCC [A6G U9A G44U],0.51
7,GGCAGGGCACAACACAGCGUGGCAAAGUGGCUGUGGCUAGACUACC [A6G U9A G44A],0.03
8,GGCAGUGCUCCACACAGCGUGGCAAAUUGGCUGUGGCUAGACUGCC [A6U A11C G27U],0
9,GGCAGGGCACAACACAGCGUGGCAAAGUGGCUGUGGCUAGUCGGCA [A6G U9A A41U U43G C46A],0.19
10,GGCAGGGCUCAACACAGCGAGGUAAAGUUGCUGGGGCUAGACUGCC [A6G U20A C23U G29U U34G],0
11,GGCAGUGCUCCACACAGCGUGGCAAAGUGGCUGUGGCCAGAUUGCC [A6U A11C U38C C42U],0.04
12,GGCAGGGCUCAACACAGCGGGGCAAAGUGGCUGUAGCUAGACUGCC [A6G U20G G35A],0.08
13,GGCAGUGCUCGACACAGCGUGGCAAUGUGGAGGUGGCUAGACUGCC [A6U A11G A26U C31A U32G],0.02
14,GGCAGUGCUCGACACAGCGUGGCAAAGUGGCUGUGGCUAGACCGCC [A6U A11G U43C],0.03
15,GGCAGGGCCCAACACAGGGUGGCAAAGUGGCUGUGGCUAGACUGCC [A6G U9C C18G],0.02
16,GGCAGGGCUCAACACAGCGAGGCAAAGUGGCUGUGGCUAGACUACC [A6G U20A G44A],0.03
17,GGCAGGGCCCGACACAGCGUGGCAAAGUGGCUGUGGCUAGCCUUCC [A6G U9C A11G A41C G44U],0.01
18,GGCAGGGCCCAACACAGCGUGGUAAAGGGGCUGUGUCUAGACUGCC [A6G U9C C23U U28G G36U],0.04
19,GGCAGUGCUCCAGACAGCGAGGCAAAGUGGCUGUGGGUAGACUGAC [A6U A11C C13G U20A C37G C45A],0

row,Variant,self-cleavage
1,GGCAGUGCUCUACACAGCGUGGCAUAGUGGCUAUGGCUAGACUGCC [A6U A11U A25U G33A],0.05
2,GGCAGUGCUCCACACAGCGUGGCAAAGUUGCUGUGGCUAGACUGCC [A6U A11C G29U],0.02
3,GGCAGGGCUCAACACAGCGUGGCAAAGUGGCUGUGGCAACACUGCG [A6G U38A G40C C46G],0.02
4,GGCAGGGCUCAACACAGCGUGGCAAAGGGACUGUGGCUAGACUGCC [A6G U28G G30A],0.14
5,GGCAGGGCUCAACACAGCGUGGCAAAGUGGCGGUGGCUAGACUGCA [A6G U32G C46A],0.08
6,GGCAGGGCUCAACACAGCGUGGCAAAGUGGCGGUGGCUAUACUGCC [A6G U32G G40U],0.02
7,GGCAGUGCUCGACACAGCGUCGCAAAGUGGCUGUGGCUAGACUGCC [A6U A11G G21C],0.01
8,GGCAGGGCGCAACACAGCGUGGCUAAGUGGCUGUGGCUAGACUGCC [A6G U9G A24U],0.12
9,GGCAGGGCCCAACACAGCGUGGCAAAGUGGCUGUGGCUUGACUGCC [A6G U9C A39U],0.05
10,GGCAGGGCCCAACACAGCGUGGCAAAGUGGCUGUGGCCAGACUGCC [A6G U9C U38C],0.02
11,GGCAGGGCGCAACACAGCGUGGCAAAGUGGCUGUGGCUAGCCUGCC [A6G U9G A41C],0.14
12,GGCAGGGCCCAACACAGCGUGGCAAAGUGGCUGUGGCUAGAAUGCC [A6G U9C C42A],0.01
13,GGCAGUGCUCGAUACAGCGUGGCAAAGAGGCUGUGGCUAAACUGCC [A6U A11G C13U U28A G40A],0.02
14,GGCAGGGCUCAACACAGCGUGGCAAAGUGGCUGUGGCCAGACUGGC [A6G U38C C45G],0.06
15,GGCAGUGCUCGACACAGCGUGGCAAAGUGGCUGUGGCUAGAUUGCC [A6U A11G C42U],0
16,GGCAGUGCUCGACACAGCGUAGCAAAGUGGGUGUGUCUAGACUGCG [A6U A11G G21A C31G G36U C46G],0.02
17,GGCAGGGCUCAACACAGCGAGGCAAAGUGGCUGUGGCUAGACUGAC [A6G U20A C45A],0.27
18,GGCAGGGCUCAACACAGCGAGGCAAAGUGGCGGUGGCUAGACUGCC [A6G U20A U32G],0.01
19,GGCAGGGCCCAACACAGCGCGGCAAAGUGGCUGUGGCUAGACUGCC [A6G U9C U20C],0.02

row,Variant,self-cleavage
1,GGCAGGGCCCAACACAGCGUGGCAAAGUUGCUGUGGCUAGACUGCC [A6G U9C G29U],0.04
2,GGCAGGGCCCAACACAGAGUGGCAAAGUGGCUGUGGUUAGACUGCC [A6G U9C C18A C37U],0.01
3,GGCAGGGCUCAACACAGCGUGGCAAAGAGGCUGUGGCUAGAUUGCC [A6G U28A C42U],0.01
4,GGCAGGGCACAACACAGCGUGGCAAAGCGGCUGUGGCUAGACUGCC [A6G U9A U28C],0.11
5,GGCAGGGCUCAACACAGCGUGGCAAAGGGGCUUUGGGUAGACUGCC [A6G U28G G33U C37G],0.07
6,GGCAGGGCUCAACACAGCGUGGCAAAGUGGCCGUUGCUAGACUGGC [A6G U32C G35U C45G],0.01
7,GGCAGGGCCCAACACAGCGUGGCAAGGUGGCUGUGGCUAGACUGCC [A6G U9C A26G],0.03
8,GGCAGGGCUCAACACAGCGUGGCAAAGCGGCCGUGGCUAGACUGCC [A6G U28C U32C],0.08
9,GGCAGGGCGCAACACAGCGUGGCAAAGAGGCUGUGGCUAGACUGCC [A6G U9G U28A],0.28
10,GGCAGUGCUCGACACAGCGUGGGCAAGUGGCUGUGUCUUGACUGGC [A6U A11G C23G A24C G36U A39U C45G],0
11,GGCAGGGCGCAACACAGCGUGGCAAAGUGGCUGUCGCUGGACUGCC [A6G U9G G35C A39G],0.14
12,GGCAGUGCUCGACACAUCGUGGCAAAGUGGCUGUGGCUAGACUGCC [A6U A11G G17U],0.02
13,GGCAGGGCUCAACACAGCGUGGCAAAGUGGCUGUGGCGAGACUUCC [A6G U38G G44U],0.02
14,GGCAGGGCUCAACACAGCGUGGCAAAGUGGCGGCGGCUAGACUGCC [A6G U32G U34C],0.02
15,GGCAGGGCUCAACACAGCGCGGCAAUGUGGCUGUGGCUAGACUGCU [A6G U20C A26U C46U],0.12
16,GGCAGGGCUCAACACAGCGGGGCAAAGUGGCUGUGUCUAGAAUGCC [A6G U20G G36U C42A],0
17,GGCAGGGCCCAACACAGAGUGGUAAAGUGGCUGUGGCUAGUCUGCC [A6G U9C C18A C23U A41U],0.01
18,GGCAGGGCGCAACACAGCGUGGCAAAGUGGCUGUUACUACACUGCC [A6G U9G G35U G36A G40C],0.03
